# Measured values from the supplement of paper PMC10681739.
# Over roughly 4,100 sequences, “arbitrary fluorescence units” has its median near 780; the highest 2% begin near 22,000. Some of the results follow.
# Biological target: T1, ETS1 (UniProt P14921)
# T1 sequence: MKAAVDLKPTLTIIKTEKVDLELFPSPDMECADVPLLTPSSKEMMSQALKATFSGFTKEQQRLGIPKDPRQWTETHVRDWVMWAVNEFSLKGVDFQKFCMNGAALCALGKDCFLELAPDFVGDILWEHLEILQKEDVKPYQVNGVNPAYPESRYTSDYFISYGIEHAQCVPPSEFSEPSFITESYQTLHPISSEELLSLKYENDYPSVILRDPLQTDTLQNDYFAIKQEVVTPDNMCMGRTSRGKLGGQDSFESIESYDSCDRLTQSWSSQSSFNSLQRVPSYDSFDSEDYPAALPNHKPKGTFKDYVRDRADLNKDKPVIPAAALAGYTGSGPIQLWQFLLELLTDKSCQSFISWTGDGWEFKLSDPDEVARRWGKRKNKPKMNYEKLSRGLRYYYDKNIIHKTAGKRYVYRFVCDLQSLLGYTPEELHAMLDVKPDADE
# Test: ETS1 binding intensity (PBM fluorescence), ETS1 alone (arbitrary fluorescence units); higher = stronger binding
# Details: ETS1 concentration 1 nM; RUNX1 concentration 0 nM
# How it was run: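 Full-length recombinant human ETS1 (1 nM, no RUNX1) was incubated, per standard PBM protocols, on double-stranded Agilent 4 × 180k arrays of 36-bp genomic probes whose RUNX1 partner site was mutated. Bound ETS1 was detected with anti-ETS1 antibody (Cell Signaling Technology 14069) and Alexa488-conjugated secondary antibody, then scanned on a GenePix 4400A. Binding level is spot fluorescence intensity, summarised over replicate spots (four printed per sequence) and not normalised.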
row,Sequence,ETS1 binding intensity
1,GCTCCCCTGACAACACCAGTTCCTCAGGAAGCCTCT,335
2,TCCAGGAAGGGGCAGGGGCCTGCTTGTAGGTTTAAA,539
3,AACTGGGGTGGGCCCCGCCCAGTTCGAACTTCCCTG,440
4,CTCCTCCCCCACTTCCTATTTTTACAGCAGTTGCAC,2630
5,CCGAGACACCTCGGGCGAGCGCAGGATGGGGTTGTC,352
6,AGTGCTGGGCTGAGGGCCGGGGAGGAAGGCGGCTCG,376
7,GTTCTCCACATCCTGTTCCGTAGCTGGGGTGCACCG,15600
8,TTGGTTTCAGTGGATTTTGGCCAGCTTCCTTACCAG,414
9,TGGGCAGGAAGTGGTATCTGATTGGGGTTTTGATTT,4560
10,GGCTGCAGGAAGTGGGAAGGTGTAGCTTTGAGTCTC,2810
11,TGCTTCCCTTCCGTTCCGACAGCGAAAAGCGCTGCC,5370
12,CTCCACTCGCGGATTCGTGCCTCCCTTCCGTTCCGA,492
13,CCCCACGCCGTGTCGGTAACGCGGAAGCCTGTGTCC,384
14,TTGCATGCTGGGATGTGTAGTCCTGGCCGCTGTGCT,356
15,GGAGCGGCGCGTTACTACTGGGGAAGTCGGCGGCTG,365
16,TCTTTGGGGTGGAGGTGGCAGGTCTTTCTTCCGCTG,580
17,CTCCCCCCAGGGGGCCGCGCTTTATACATCCGGACC,750
18,GCGCAAGCAGGAAGCGTTTGCAGTGATCCCGGCGAC,1620
19,CCGGGAAGGCGGAAGCAGCAGAGACGCCGCGAGGCC,2220
20,TGCGCCTGCAGCCTCCAGGCATCGCGTCCGGCTGGA,435
21,CACTTCCGGGTCGTCAGCTCAGTTCTGCTGTTTCTG,26000
22,GCCTGGTACCAATAAAAAGATCAACACCGGAAATAA,4780
23,GCTTACGTCACGTCCGGCGCCTGGGGCCCACCCCTC,3150
24,CCGTGGAAGGAAACGCTGCCAACCCCAACAGAAATG,681
25,ACGTGATCGCGTGGGCGCAGTCCCAGACAGGAAACG,851

row,Sequence,ETS1 binding intensity
1,GTGACCCTGAGGGCCAGTCACTTCCTCTGAGCCTCA,1450
2,GCCTGCTGTTTGGGTGCTGTGACCGTCCGGGGGCGG,539
3,GAGCTGCAAGTCACAAAGACCGGAAGTGCGCGTACG,26000
4,TCTGGATTTCCTGTGGGGCTCTCCCCCAAGCAGTAC,12200
5,GGCCGGGGACGGAAGGCGGGCCTGCAGCAGATCCTG,482
6,ACCCTTCCTGGAGCATTGTCGCAGCAACTACAACAG,1800
7,TGCTCGGGTGGACACCGCTGCAGGAAGCTCGATAGC,445
8,TCAGCCTGTAGTTTCTGAAGACTTCCTCGAAGTCAT,415
9,AACCCCTTGCACCGTGGACACAGCTTCCTCTTCCCC,482
10,TCCAGGATGTGGGATGCCGTGCTGTACCTCATGTCA,1020
11,GTACTGCTTGGGGGAGAGCCCCACAGGAAATCCAGA,731
12,ATGGTGCCCGCTGCAGCCGAGGACCGGATAGCCCGC,340
13,CTCTTGGGGTCAGGTCACGCCGCCGGAAGCCGCCCC,650
14,AGCTTCCTGTTTGGCCTTGCTGATGTCACCCCATTA,27600
15,GCTCCCTCGGTGGGGATGCTGTTTCCGTCCTGGATG,701
16,TTAACTCCACGGAAGAATAAACTACCTCCGCTCACC,465
17,GTGATGGCACCCTCAAAGCTGCAGAGGATGTGAGCA,433
18,CCCTTGCCAGAGGAAGCCACTGCCACCGAAGAAGCA,372
19,TGACTTCCTCCTCTTCACTAACAGAAACGTCAATTT,9420
20,GGCTTGCCAAGAGGAAATTTGAAGCTACAATAACAT,397
21,ACCCCTGCTGGTCCTGTGCCTGGCGGGCTTCCGGCA,633
22,TAAGGAAGCTGAGGGGAGGGTGTTATGAGCACATCA,430
23,GGGGCCTCACCTCAGGTTCCACTTCCTTTCTGGGTA,1190
24,ATAAGGAAGCCGGCGCACTGATTTGGGGTTGTTGCC,394
25,TGCCTGTTGTCTTTTGAGAGGTGGGGAAGTGGGCGA,519

row,Sequence,ETS1 binding intensity
1,AGGCTGTGATTATCTGCAAACAGCCCCCTTCCTTCA,303
2,CGGCTCCTGAGGGCCCTCACATCCTGAAACACCGCT,850
3,GAGGACGCGGAAGTCCTTCTCGCGGGGCGGAGCTAG,1540
4,TTGGTTGTGTCGTCGCGTCTCGGAAACCGGTAGCGC,400
5,ACCGGAGTGTGGAGGTAAACCTTTTCCGGCCTTCCA,1810
6,AACACAGGTTCTGGGAGCAAGAAAGGAAGTGGCTTG,536
7,CCGAGGTTCCTGCTGCAGAAAGAAAGCGGAAATTTC,1630
8,TCCTGTTTTCCACCCAGCCTCTTCCTCCCGTGCCCA,507
9,GTAACCCAGGCCCCAAGTGGGGTGAAGGAAGCTGTA,391
10,CCACCCAGAAAACTACATTTAACTTCCTCCTCTACT,804
11,CTTCGAATTGCCGCGAGAGAGTTCCGCGTAGGGGTC,371
12,TGGCTGGGGCTGCCGGGGCAGCGCTTCCTCTAGCAA,470
13,CCCAGCCGTATGTGCAGAGTGGGGAGGAAGAGGAGG,410
14,CTCCAGGGACTACAGCGGGAGAGGAAATAGCCACCA,515
15,CCTCTCCATCTTCCGCACCACTGAGGCCGCTGTCTC,1320
16,AAGCCCTAGAGGAAATTAGTACGTAAGCACCTTCTG,670
17,AGCGGCTTCCTGCTGGGCTTTTGCACTCCCCAGAAC,11800
18,CCTGGGACACCTCGAAAGTCGGGAAATGGTGCGTGT,346
19,CCACCAAGAGTGGATTCTGACCTCTTCCTGCCACTG,651
20,GGAATCCGCTGCCGCCGCCCTCGGGTTCCGCCGCGG,591
21,TTGAAGCGGAGGTTCGATGCGGAAGTGGCGGGTGCA,1080
22,CTTTTCGCGTTGTAGCTGGGACTTCCGCTCCGCCAT,3690
23,CTAAACCGGAAGCCGCCCCTCTGGCCGCTCTAAAAC,21900
24,AACTTCCGAGGGAACTAACTGGTTTTAATCACATTG,4690
25,TCTCCACCCAAGCACACTATTTCCTTTCTTGCTGCC,937

row,Sequence,ETS1 binding intensity
1,ACGTCGTCGCCGAAGGGCCCCTTCCGCCTCCGTTCC,674
2,TCCTCCCCCAACGGCACCCTCAGCTTCCTGTTTCAG,1720
3,TCAGAGAGAGCTCTGGTTGCCGGAAGTTGAGCGGCG,3400
4,AGGCGGAACTACTGTGTCAGGAGTCGTGCTTTTCAA,375
5,GGTGCCGAAGCTCCAGCCTCTCGGCAAGGAAGCGCT,334
6,AGATCTGGAGGCGGTCGCGGATGGGCTGGCGGCAGA,301
7,TTAGAGTCTCTGGGGCTCTTAGCTGGGAAATGATAC,352
8,CAAAGCAACCTCCACCTGGTGGCGCCACTTCCCCCC,439
9,GAGGCTGTTGTCACATGGGGGAGGAAACAATAGCCC,499
10,AGACCCGGAAGAACTTGTCCCAGTGTTGACAACACC,1200
11,CCCTAGCTGCAGCCCAAGATCCTCCCACGGGAAGTG,418
12,CCTGTCTTGTAGTTAAGTCAAGGCAGGAAATGCTTT,1860
13,TCTCGGTTTCCTAAAAAACTAATCCGCCTGGGGCTG,623
14,ATCTTACCCCGGAAATGACAACAGTGCCGTAAACTG,9240
15,ACAGCGCTGATCGCGGAGGTCCAACCGGAAGAATGT,711
16,GAGAGGAGCGCTGTCACTGCTTCCTTCCACCCTCGC,437
17,GCAGCCCAGCTTCCTGCAGACCAAAACCCCAAGCAG,4680
18,GAAAGAGGTTTGGGGTTAGTGCTTCCTGTCTCCACA,2890
19,ACGACTGCAGGGGAAAGCAAGCCGGCCGGATGAGAA,419
20,TCTAGTAAAAGAGGAAGTTCTTAACGACATTTCCAT,1010
21,TTGGTTCTGTGATTTCAGGTGTGAGTTCCGGTGTGC,695
22,GTATCAGCCGCGCCCCAGTCGGAGGAAATAGACGCT,435
23,GCTGACCCGGAAGCGCTCGTGTCCACCATCTCCGAC,3790
24,ACCTTGTAGCCTATTCTAACCCCAGCCCGGAAACCA,580
25,GTCCTCTTCGGTGGCGCCAGCTTCCTTTCAATTCCA,673

row,Sequence,ETS1 binding intensity
1,TGGGTGCCGGATTCGGTGAGTGAGGTTCTCATGATG,538
2,TGCGTCCATTCCGGGCTTCTGGCCGTAAGGCGCCAG,368
3,AGCCGCGCCGAATCCGCTCAGTGCATCCGGGGCCCC,1250
4,GCTCCTCACTGCGCTCACAGCCACATCCTGCAGAGC,957
5,TCCCGGCGTTCTTCCGCTGGCTCAGCCGCGAGTACC,2930
6,ATGCAGAAGCTACAGGAAGAAGCCGCTGGCCAAGCT,668
7,GGGCGGAAGGGGTTCGCACGCCAAGAACTGCCATGC,434
8,CTGACAGTTACTTCCTGTCTTTGTGAGCGATTGTGA,19200
9,CGTTTCCTGTGGCTGCAGCTCTCCCCACGCACACAC,23800
10,GGCGGAAGCTGCCGCTGCCTTGCGCCCCCTCACACG,1100
11,TAAACCCTGGAGCACAGACAGGAAGGAACTTGCTCA,650
12,GAACCCGGCGATCACGGGAATATCCGTCGCGCCGAG,687
13,CGGTAGGCGGCTATCCTCCAAGCTGGCAGGAAGCGC,413
14,GCGGCGCTGCAGGCCGAGGTGGGGCCGGAAATGTCA,804
15,ACCCCAAACTCACAAACCCACCGGAAGGAACCAACT,1470
16,AAGTGAGCCATGTGCGTACGTGCGGAAGAATATTCA,413
17,GATGTTGTCTCGGCTGGAGCCTGCAGGAAACCTCGT,383
18,CGATATAACTACCCCTAAGCTAAACTACATCCTGGT,572
19,GCAGGCTCGAGCGGCCAAAGCTCTTTCCGGGGGCCC,424
20,GTTTTCAAGGCAGGAAGTGGCTGTAGTGGCACGGAG,7460
21,GCGGGGCGCAGGAAGCGGGGCGAAAGCACTGTTGGC,1660
22,GGGTTGGTAGTTATCAGCGGGGGGAAGTAGGAGGTG,1110
23,TTCTGCAAGAAATCCAACATAATTTCCTGTCTCTAC,2490
24,CAAAACACCTGTGATTTTGCAAAAGGATGTGATTTC,393
25,GGCACCCCCGAATTTCTTCGAAGAGGAAATAAATAC,456
